Source: article PMC6919601, “Identification of Plasmodium dipeptidyl aminopeptidase allosteric inhibitors by high throughput screening” (PLoS ONE, 2019)
About 230 (0.21%) of roughly 110,000 compounds showed an effect of 50% or more. This is one part of the list.

biological target: DPAP1 (Plasmodium falciparum, UniProt Q8IIJ9); assay: primary screen, percent inhibition; read by cleavage of a fluorogenic dipeptide substrate; higher = more effect of the substance; design: species or system P. falciparum D10 trophozoite lysates; single well
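Further: 30 min substrate incubation versus DMSO and 10 µM JCP410 controls.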

Chain of DPAP1 (Q8IIJ9 whole entry, looked up): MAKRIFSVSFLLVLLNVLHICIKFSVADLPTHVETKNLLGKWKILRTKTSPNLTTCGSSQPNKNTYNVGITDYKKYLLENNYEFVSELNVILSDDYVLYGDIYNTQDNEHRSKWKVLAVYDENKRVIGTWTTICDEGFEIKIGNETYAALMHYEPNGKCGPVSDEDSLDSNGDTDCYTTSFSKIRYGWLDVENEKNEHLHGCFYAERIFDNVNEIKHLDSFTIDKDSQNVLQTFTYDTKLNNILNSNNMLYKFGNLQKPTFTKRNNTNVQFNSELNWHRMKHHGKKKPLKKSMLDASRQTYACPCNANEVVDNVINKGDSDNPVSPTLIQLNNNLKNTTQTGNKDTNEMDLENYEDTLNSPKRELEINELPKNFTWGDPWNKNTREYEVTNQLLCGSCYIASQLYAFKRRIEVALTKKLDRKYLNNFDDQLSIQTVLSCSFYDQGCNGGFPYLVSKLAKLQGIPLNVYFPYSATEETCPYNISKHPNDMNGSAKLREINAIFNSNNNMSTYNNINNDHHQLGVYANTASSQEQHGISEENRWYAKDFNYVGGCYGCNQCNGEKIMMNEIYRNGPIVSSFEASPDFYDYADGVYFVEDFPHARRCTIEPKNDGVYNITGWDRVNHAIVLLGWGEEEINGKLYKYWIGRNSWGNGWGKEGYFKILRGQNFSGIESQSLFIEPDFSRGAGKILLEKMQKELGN

Row | Compound | % Inhibition @ 10 uM [%]
1 | O=C1CC(N2CCOCC2)C(=O)N1c1cc(Cl)cc(Cl)c1 (stereo not shown) | -5.49
2 | Nc1nnc2c(n1)-c1ccccc1C2=O | -0.546
3 | O=C(C1CCCN(CC2CC3C=CC2C3)C1)N1CCC(Cc2ccccc2)CC1 (stereo not shown) | -4.84
4 | CCCCN(CC)S(=O)(=O)c1ccc2nc(O)cc(C(=O)NCCCOCC)c2c1 | -1.34
5 | CCOC(=O)N1CCN(C(=O)CN(c2ccc(F)cc2)S(=O)(=O)c2ccccc2)CC1 | 0.00477
6 | COc1ccc(C2=N/C(=C\c3cccc4ccccc34)C(=O)O2)cc1 | 7.61
7 | CCN(CC)CCN1C(=O)C(O)=C(C(=O)c2ccc(F)cc2)C1c1cccc(Cl)c1 (stereo not shown) | -0.564
8 | CCc1cc2c(cc3c(=O)n(CC(=O)NCc4ccccc4Cl)nc(CC)n32)s1 | 4.84
9 | O=C(Cc1cccs1)N1CCc2ccccc21 | 1.7
10 | COc1ccc(OC)c(NC(=O)c2ccc(OC(C)C)cc2)c1 | -1.88
11 | COc1ccc(S(=O)(=O)Nc2ccc(C(N)=O)cc2)cc1 | 3.03
12 | COc1cc2c(C(=O)NCc3ccc4c(c3)OCO4)cn(C)c(=O)c2cc1OC | 12.3
13 | Cc1cc(O)n2nc(NC(=O)c3ccccc3F)nc2n1 | 0.401
14 | COc1ccc2c(CNCCc3ccc(Cl)cc3)c(C(=O)O)[nH]c2c1 | 3.38
15 | CCOC(=O)c1ccc(-n2cc(-c3cc4ccccc4oc3=O)nc2S)cc1 | 10.7
16 | COc1ccc(CCNC(=O)CC(C)C)cc1OC | 4.81
17 | COc1ccc(S(=O)(=O)N(CC(N)=O)c2ccc(C)cc2)cc1OC | 1.52
18 | Cc1ccc(C)c(N2CCN(Cc3cc(C)n(-c4cccc(C(F)(F)F)c4)c3C)CC2)c1 | -1.41
19 | COc1ccc(OC)c(CN2CCN(Cc3cccc(C)c3)CC2)c1 | 4.32
20 | CC1CCCCN1C(=O)CCNS(=O)(=O)c1ccc2nc(O)ccc2c1 (stereo not shown) | -0.544
21 | c1cn(CCCNC2CCSC2)cn1 (stereo not shown) | -0.0908
22 | CC(NC(=O)CN1C(=O)c2ccccc2Sc2ncccc21)c1ccc2c(c1)OCCO2 (stereo not shown) | -3.6

Row | Compound | % Inhibition @ 10 uM [%]
23 | CCc1nnc(N2CCN(c3ncnc4c3cnn4-c3ccccc3)CC2)s1 | 0.962
24 | CN(C)CCNC(=O)c1cccnc1N1CCN(C)CC1 | -2.74
25 | O=C(NS(=O)(=O)c1cnccc1Sc1ccccc1Cl)c1ccc(Cl)cc1 | 0.408
26 | CCCC1=C(C(=O)OCC)C(c2cccc(Cl)c2)C(C#N)=C(N)O1 (stereo not shown) | -1.38
27 | Oc1ccc(NCc2c(Cl)cccc2Cl)cc1 | -2.16
28 | COCCN1C(=O)c2ccccc2C(C(=O)NC2CCCC(C)C2C)C1c1cn(C)c2ccccc12 (stereo not shown) | 5.1
29 | CC1CCN(c2nc3ccc(C(=O)NCCCN4CCN(Cc5ccccc5)CC4)cc3s2)CC1 | -2.37
30 | COc1ccc(C2(CNC(=O)C3COc4ccccc4O3)CCCC2)cc1OC (stereo not shown) | -1.93
31 | Cc1ccc(CN(C)C2CCN(C)CC2)s1 | 4.55
32 | CC(=O)Nc1sc(Cc2ccccc2)c(C)c1C(N)=O | 5.2
33 | OCCN(Cc1ccccc1)Cc1ccccc1Br | -0.0494
34 | CC(=O)N1CCN(Cc2ccccc2Cl)CC1 | 3.24
35 | Cc1ccc(S(=O)(=O)N2CCOCC2)cc1C(=O)N1CCOCC1 | 4.67
36 | CC(C)Oc1ccc(N2CC(C(=O)Nc3ccccn3)CC2=O)cc1 (stereo not shown) | 4.57
37 | O=C1OC(c2cccc3ccccc23)=N/C1=C/c1ccccc1Cl | -0.251
38 | CS(=O)(=O)N1CCC(C(=O)N2CCN(Cc3ccccc3)CC2)CC1 | -8.18
39 | COc1ccccc1Cn1ccn(Cc2cccc(C(F)(F)F)c2)c(=O)c1=O | -1.71
40 | N#Cc1nc(/C=C/c2cccs2)oc1N1CCOCC1 | -5.33
41 | CC(C)Cn1cc(NC(=O)NCCCc2ccccc2)c2ccccc2c1=O | -4.23
42 | CCCOc1ccc(C2C(C#N)=C(N)Oc3[nH]nc(C)c32)cc1OC (stereo not shown) | -2.56
43 | CCc1ccc(Oc2nc3c(C)cccn3c(=O)c2/C=C(\C#N)S(=O)(=O)c2ccc(C)cc2)cc1 | -1.43
44 | N#C/C(=C\Nc1ccccc1O)c1nc2ccccc2o1 | -1.37

Row | Compound | % Inhibition @ 10 uM [%]
45 | O=C(Cn1ccc2cc(S(=O)(=O)N3CCCCC3)ccc21)N1CCC2(CC1)OCCO2 | -6.42
46 | Cc1cc(NC(=O)Cn2ncc3c(=O)oc4ccccc4c32)no1 | -4.69
47 | CC1=C(C(=O)NC(C)c2ccccc2)C2(CCCCCC2)OC1=O (stereo not shown) | 0.233
48 | CN1CCN(C(=O)CN(c2ccccc2)S(=O)(=O)c2ccc(Cl)cc2)CC1 | -2.65
49 | CCCCCC(=O)NCCCCCC(=O)O | -0.415
50 | COCc1cc(C)nc2c1C(=O)NC(c1ccccc1C(=O)O)N2Cc1ccccc1 (stereo not shown) | -0.0108
51 | COc1cccc(NC(=O)c2ccc(NC(=O)C(C)C)cc2)c1 | -0.425
52 | CCCc1nc2ccccc2n1Cc1ccccc1OC | 0.913
53 | Cc1nc(-c2ccc(C(=O)N[C@@H](Cc3cc(Cl)c(O)c(Cl)c3)C(=O)NCC#N)cc2)cs1 | 17
54 | N#Cc1cc2c(nc1SCC(=O)Nc1nncs1)C1CCN2CC1 | 4.57
55 | CCOC(=O)N1CCN(c2c(N3CCN(c4ccccn4)CC3)c(=O)c2=O)CC1 | 1.93
56 | CCCNC(=O)CN(c1ccc(C)c(Cl)c1)S(=O)(=O)c1ccc(C)cc1 | -0.473
57 | CCCC(=O)Nc1ccc(S(=O)(=O)Nc2ccc(OCC)cc2)cc1 | -4.14
58 | CCOc1cccc(C(=O)Nc2nn3c(C)nnc3s2)c1 | -3.1
59 | COc1ccc2cc3c(N)c(C(=O)Nc4ccc(C(C)=O)cc4)sc3nc2c1 | -4.12
60 | CN(CC(=O)NCc1ccc(Cl)cc1)S(=O)(=O)c1cc(Cl)ccc1Cl | 3.89
61 | COc1ccc(CNCc2ccc(OC)cc2)cc1 | -3.35
62 | COc1ccc(-c2noc(CC(=O)N3CCN(c4ccccn4)CC3)n2)cc1 | 5.34
63 | CC(C)(CO)NC(=O)c1cccc(S(=O)(=O)N2CCOCC2)c1 | -0.597
64 | CCCn1c(=O)c(C(=O)Nc2ccccc2O)c(O)c2ccccc21 | -2.09
